Measurements from PubChem BioAssay AID651820 (National Center for Advancing Translational Sciences (NCATS), 2012).
Values joined by “and” are separate entries in the source; they are usually repeats but may differ in a detail not shown here. Equal values may be shown once. The whole screen tested about 340,000 compounds, of which about 12,000 (3.5%) were called active. Inconclusive results, whose numbers are uncertain, are shown with a selection of clear calls. The call rests on the fitted dose curve; in most records, active means well fitted inhibition curve with a large enough effect; inconclusive means small, poorly fitted or top-dose-only effect, or another doubt; inactive means no such curve, though single readings can be large or run the other way. No potency is given beside an inconclusive call; the fits are too rough.

Assay: qHTS Assay for Inhibitors of Hepatitis C Virus (HCV)
Conditions: Huh7.5.1 HCVcc-Cre (HCVcc is cell-culture hepatitis C virus) infection, luciferase reporter, 44 h; activity change, negative = inhibition: at 41.8 µM (top of the series) unless noted
Summary of the method: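 Compounds are dispensed onto cells plated 4 h earlier at 1,000 per well, with HCVcc-Cre virus (about 0.5 moi) added next. Following 44 h of culture, luminescent signal is measured for 15 sec after 15 min with substrate at room temperature.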
On the % scale 0 is the no-effect control and ±100 the full control effect; potency means the concentration at half of the fitted maximal effect; tags describe the fitted curve by direction and shape.

Question: With `Clc1ccc(-c2cn3c(n2)-c2ccccc2C3)cc1Cl` as the compound, how does the Potency read?
Answer: inconclusive [inhibitor, single point]

Question: For `COc1ccccc1-n1c(=O)oc2ccc(Cl)cc2c1=O`, which Potency is on record?
Answer: inconclusive [inhibitor, single point]

Question: For `O=C(CSc1nc2ccccc2nc1N1CCCC1)Nc1ccc(Cl)cc1`, which “activity change, negative = inhibition” value is on record?
Answer: inactive: -0.908%

Question: For `CCOC(=O)c1c(NC(=O)CSc2nnc(-c3ccccc3C)n2C)sc(C(C)=O)c1C`, which Potency is on record?
Answer: active: 12.6 µM and active: 10 µM

Question: For `CCC1CCc2sc(C(=O)NCC(c3ccc(OC)cc3)N3CCOCC3)cc2C1` (stereo not drawn), which Potency is on record?
Answer: inconclusive [inhibitor, single point]

Question: For `Cc1ccc(S(=O)(=O)Nc2ccccc2C(=O)OC(C)C(=O)Nc2ccc3ccccc3c2)cc1[N+](=O)[O-]` (stereo not drawn), which “activity change, negative = inhibition” value is on record?
Answer: inactive: 7.2%

Question: For `CN(C)c1ncnc2[nH]ncc12`, which “activity change, negative = inhibition” value is on record?
Answer: inactive: -4.02%

Question: Which Potency does the source give for `COc1cccc(Cn2c(NCc3ccco3)nc3c2c(=O)n(C)c(=O)n3C)c1` here?
Answer: inconclusive [inhibitor, full curve]

Question: With `O=C(NC1CCC(O)CC1)c1ccc(-c2ccc(Cl)cc2)o1` (stereo not drawn) as the compound, how does the Potency read?
Answer: inconclusive [inhibitor, partial curve]

Question: For `CC(=O)Oc1ccc(-c2csc(Nc3ccc(S(N)(=O)=O)cc3)n2)cc1`, which Potency is on record?
Answer: inconclusive [inhibitor, single point]

Question: Which Potency does the source give for `CCCOc1ccc(C2NC(=S)NC(C)=C2C(=O)c2ccccc2)cc1OC` (stereo not drawn) here?
Answer: inconclusive [inhibitor, partial curve]

Question: For `Cc1c(C(=O)N2CCN(c3ccccc3)CC2)oc2c(Cl)cccc12`, which Potency is on record?
Answer: inconclusive [inhibitor, single point]

Question: Which Potency does the source give for `Cc1cccc(/C=C2/S/C(=N/N=C3\CC4CCC3(C)C4(C)C)NC2=O)c1` (stereo not drawn) here?
Answer: inconclusive [inhibitor, single point]

Question: For `O=S(=O)(c1ccc(Cl)cc1)N1CCC2(CC1)OCCN2S(=O)(=O)c1cccs1`, which “activity change, negative = inhibition” value is on record?
Answer: inactive: -0.771%

Question: With `COc1cccc(COc2ccc(N(C)S(=O)(=O)c3ccccc3)cc2)c1` as the compound, how does the Potency read?
Answer: inconclusive [inhibitor, single point]

Question: Which Potency does the source give for `CC(C)c1cc(C(N)=O)c(NC(=O)c2cccc(COc3ccc(Cl)cc3)c2)s1` here?
Answer: inconclusive [inhibitor, partial curve]

Question: Which “activity change, negative = inhibition” value does the source give for `N#Cc1nc(COc2ccccc2F)oc1NCCCn1ccnc1` here?
Answer: inactive: -4.88%

Question: For `CCOc1ccc(S(=O)(=O)c2c(C(=O)c3ccccc3)cnc3cc4c(cc23)OCCO4)cc1`, which “activity change, negative = inhibition” value is on record?
Answer: inactive: 2.29%

Question: With `COc1cc(OC)c2c(c1C(CCN1CCOCC1)c1ccc(N(C)C)cc1)OC(=O)CC2c1ccc(N(C)C)cc1` (stereo not drawn) as the compound, how does the Potency read?
Answer: inconclusive [inhibitor, single point]

Question: For `Cc1ccc2c(c1)C(=O)N1[C@H]3c4cc(C)ccc4OC[C@@H]3[C@H](c3ccccc3)[C@]1(C)C(=O)N2`, which Potency is on record?
Answer: inconclusive [inhibitor, partial curve]

Question: Which “activity change, negative = inhibition” value does the source give for `Cc1csc(N(C(=O)c2cccc(S(=O)(=O)N3CCCC3)c2)c2ccccc2)n1` here?
Answer: inactive: -44%

Question: With `O=c1[nH]c(Cc2ccc(Cl)cc2)nc2ccccc12` as the compound, how does the “activity change, negative = inhibition” value read?
Answer: inactive: 10.5%

Question: Which Potency does the source give for `COc1ccc(-c2cc(C(=O)Nc3cc(S(N)(=O)=O)ccc3C)c3ccccc3n2)cc1OC` here?
Answer: inconclusive [inhibitor, partial curve]

Question: For `O=C(NN=C1CCCC1)c1ccc([N+](=O)[O-])cc1`, which “activity change, negative = inhibition” value is on record?
Answer: inactive: 8.5%

Question: Which Potency does the source give for `O=C(COc1ccc2c(-c3ccccc3)cc(=O)oc2c1)N[C@H](Cc1c[nH]c2ccccc12)C(=O)O` here?
Answer: inconclusive [inhibitor, single point]

Question: Which Potency does the source give for `CCCn1c2ccccc2c2nnc(SC(CC)C(=O)Nc3cc(C)on3)nc21` (stereo not drawn) here?
Answer: inconclusive [inhibitor, partial curve]

Question: Which Potency does the source give for `O=C(/C=C\c1ccccc1)NCC(=O)N/N=C/c1ccc(O)cc1O` here?
Answer: inconclusive [inhibitor, single point]

Question: Which Potency does the source give for `C=CCNC(=O)c1cc2nc(C3CC3)cc(C(F)F)n2n1` here?
Answer: inconclusive [inhibitor, full curve, poor fit]

Question: Which Potency does the source give for `Cc1cccc(NC(=S)N/N=C/c2cccc(O)c2)c1C` here?
Answer: inconclusive [inhibitor, partial curve]

Question: Which Potency does the source give for `O=C(NCCN1CCOCC1)c1cc2sccc2n1Cc1ccc(Cl)cc1` here?
Answer: inconclusive [inhibitor, single point]

Question: Which Potency does the source give for `CC(=O)Nc1ccc(S(=O)(=O)Nc2cccc3[nH]ncc23)cc1` here?
Answer: inconclusive [inhibitor, full curve, poor fit]

Question: For `Cc1ccc(C)c(N(C(=O)Cn2nnc3ccccc32)C(C(=O)NCc2ccco2)c2ccncc2)c1` (stereo not drawn), which Potency is on record?
Answer: inactive

Question: With `CCOc1ccccc1NC(=O)NCc1ccc(F)cc1` as the compound, how does the Potency read?
Answer: inconclusive [inhibitor, partial curve]

Question: With `Cc1c2cnn(CC(=O)NCCN3CCOCC3)c(=O)c2c(C)n1Cc1ccccc1` as the compound, how does the “activity change, negative = inhibition” value read?
Answer: inactive: 6.19%

Question: For `N#Cc1cccc(S(=O)(=O)N2CCN(c3ccnc4cc(Cl)ccc34)CC2)c1`, which Potency is on record?
Answer: inconclusive [inhibitor, single point]

Question: For `COc1ccc(C(=O)Nc2ccc3ccccc3c2)c(OC)c1`, which Potency is on record?
Answer: inconclusive [inhibitor, single point]

Question: Which Potency does the source give for `CCOc1ccc(-c2ccc(SCC(=O)Nc3nnc(CC)s3)nn2)cc1` here?
Answer: inconclusive [inhibitor, single point]

Question: Which Potency does the source give for `Oc1ccc(-c2c(-c3ccsc3)sc3ccccc23)cc1` here?
Answer: inconclusive [inhibitor, single point]

Question: Which Potency does the source give for `COC(=O)CCSc1cc(NCCOC(C)=O)c([N+](=O)[O-])c2nonc12` here?
Answer: inconclusive [inhibitor, single point]

Question: With `CC(C)(C)c1ccc(-n2ncc3c2CCCC3NC(=O)c2cnccn2)cc1` (stereo not drawn) as the compound, how does the Potency read?
Answer: active: 4.47 µM

Question: Which “activity change, negative = inhibition” value does the source give for `N#CCCn1cc(C=C(C#N)C#N)c(-c2ccc(-c3ccccc3)cc2)n1` here?
Answer: inactive: 16.1%

Question: With `Cc1cc(Nc2ccccc2)nc2cc(O)ccc12` as the compound, how does the Potency read?
Answer: inconclusive [inhibitor, single point]

Question: For `O=C(c1ccc(Cn2c(=S)[nH]c3ccccc3c2=O)cc1)N1CCN(c2ccccn2)CC1`, which Potency is on record?
Answer: active: 11.2 µM
